# According to PubChem BioAssay (Tox21):
# Where “and” joins values, the source holds several entries; their conditions need not be identical. Equal entries are not always repeated. Inconclusive means that the source gave no clear call. Such entries were picked first, then a sample of the others. For some assays here: A potency beside an inconclusive call is a rough fit, not a confirmed value. Some compounds were tested as several samples or in several runs, with calls that do not always agree. Calls of active or inactive are those of the source. Unless noted, the call rests on the fitted dose curve; in most records, active means well fitted curve in the direction sought with a large enough effect in the repeat runs; inconclusive means weak or mixed curves; inactive means no such curve, though single readings can be large; an effect the other way counts as inactive or inconclusive.
# How the values were obtained:
# [1] = qHTS assay to identify small molecule agonists of the androgen receptor (AR) signaling pathway in the presence of an antagonist - cell viability counter screen (AID 1259379); details: MDA-kb2 viability, CellTiter-Fluor, 16 h; series mostly up to 92.4 µM; further: nearly all actives have a fitted effect of over 25% in size; further: potency means the concentration at half of the fitted maximal effect
# Method in brief: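 In MDA-kb2 cells (human breast carcinoma, MMTV-luciferase), compounds at 15 concentrations plus 3.0uM nilutamide; 16 hr, 37C, 0% CO2; CellTiter-Fluor fluorescence read for viability.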
# [2] = target: Thyrotropin receptor (Homo sapiens) (UniProt P16473); assay: qHTS assay to identify small molecule antagonists of the thyroid stimulating hormone receptor (TSHR) signaling pathway (AID 1259385; calls by dose curve; further: potency means the concentration at half of the fitted maximal effect; nearly all actives have a fitted effect of over 20% in size); details: TSHR-HEK293 cAMP HTRF, TSH-stimulated antagonist mode; activity change, negative = inhibition: at 92.4 µM (top of the series) unless noted
# Sequence of UniProt P16473 (P16473 whole entry, looked up): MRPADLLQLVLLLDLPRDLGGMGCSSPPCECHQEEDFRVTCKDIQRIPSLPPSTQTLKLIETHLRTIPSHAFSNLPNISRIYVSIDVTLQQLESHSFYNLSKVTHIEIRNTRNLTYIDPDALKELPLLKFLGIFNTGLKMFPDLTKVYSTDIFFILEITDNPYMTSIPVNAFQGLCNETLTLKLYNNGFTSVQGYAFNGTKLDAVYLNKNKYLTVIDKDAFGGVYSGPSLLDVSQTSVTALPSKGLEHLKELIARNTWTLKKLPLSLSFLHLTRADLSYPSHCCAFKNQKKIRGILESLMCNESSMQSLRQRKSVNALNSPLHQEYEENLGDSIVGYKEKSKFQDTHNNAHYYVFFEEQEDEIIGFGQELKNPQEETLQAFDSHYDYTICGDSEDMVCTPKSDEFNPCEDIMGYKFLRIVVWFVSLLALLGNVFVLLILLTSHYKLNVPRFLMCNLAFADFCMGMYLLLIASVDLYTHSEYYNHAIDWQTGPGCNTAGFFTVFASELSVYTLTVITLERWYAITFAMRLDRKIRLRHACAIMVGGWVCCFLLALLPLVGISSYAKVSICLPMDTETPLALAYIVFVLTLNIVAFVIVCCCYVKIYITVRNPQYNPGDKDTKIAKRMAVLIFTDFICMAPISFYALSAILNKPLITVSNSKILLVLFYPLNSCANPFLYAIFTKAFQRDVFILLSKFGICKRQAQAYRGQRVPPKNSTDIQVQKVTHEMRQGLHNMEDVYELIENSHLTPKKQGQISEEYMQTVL
# Method in brief: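 TSHR-HEK293 cells (800/well) plated 18 h, then compounds with Ro20-1724 and TSH at 1.5 ng/mL final, 30 min at room temperature. cAMP quantified by HTRF (cAMP-d2/anti-cAMP-cryptate, 1 h); 15 concentrations in triplicate.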
# [3] = target: Progesterone receptor (Homo sapiens) (UniProt P06401); assay: qHTS assay to identify small molecule agonists of the progesterone receptor (PR) signaling pathway (AID 1346784; calls by dose curve; further: nearly all actives have a fitted effect of over 30% in size; further: potency means the concentration at half of the fitted maximal effect; on activation: on the % scale 0 is the no-effect control and ±100 the full control effect); details: PR-UAS-bla HEK293T, beta-lactamase FRET ratio, 16 h; activation: at 92.4 µM (top of the series) unless noted
# Sequence of UniProt P06401 (P06401 whole entry, looked up): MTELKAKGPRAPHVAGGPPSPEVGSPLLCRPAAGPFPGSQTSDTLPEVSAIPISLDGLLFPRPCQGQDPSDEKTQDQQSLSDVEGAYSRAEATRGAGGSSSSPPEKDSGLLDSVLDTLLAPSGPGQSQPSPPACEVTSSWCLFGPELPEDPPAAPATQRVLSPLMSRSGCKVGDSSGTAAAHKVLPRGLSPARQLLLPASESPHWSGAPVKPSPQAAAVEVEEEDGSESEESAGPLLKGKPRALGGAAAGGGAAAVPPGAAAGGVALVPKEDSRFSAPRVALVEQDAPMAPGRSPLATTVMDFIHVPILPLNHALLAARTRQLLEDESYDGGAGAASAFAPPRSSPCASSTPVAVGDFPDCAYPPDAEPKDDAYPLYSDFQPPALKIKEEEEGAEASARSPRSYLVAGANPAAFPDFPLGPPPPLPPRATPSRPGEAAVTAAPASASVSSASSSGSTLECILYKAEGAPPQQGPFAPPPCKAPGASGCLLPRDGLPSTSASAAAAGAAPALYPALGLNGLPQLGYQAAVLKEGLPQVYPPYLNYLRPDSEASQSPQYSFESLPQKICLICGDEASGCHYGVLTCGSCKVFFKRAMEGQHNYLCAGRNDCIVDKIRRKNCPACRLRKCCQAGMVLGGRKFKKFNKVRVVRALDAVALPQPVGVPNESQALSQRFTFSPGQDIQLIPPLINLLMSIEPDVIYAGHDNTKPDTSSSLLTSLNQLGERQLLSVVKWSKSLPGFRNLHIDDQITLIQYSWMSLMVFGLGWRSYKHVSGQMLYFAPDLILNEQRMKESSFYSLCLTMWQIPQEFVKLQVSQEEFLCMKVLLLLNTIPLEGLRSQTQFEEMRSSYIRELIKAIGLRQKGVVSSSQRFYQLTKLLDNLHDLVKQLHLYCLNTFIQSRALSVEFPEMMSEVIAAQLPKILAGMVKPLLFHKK
# Method in brief: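 Using charcoal-stripped serum (2%) to limit endogenous steroids, PR-UAS-bla HEK 293T cells received compounds for 16 hr at 37C after 6 hr plating; beta-lactamase FRET fluorescence was recorded following 2 hr substrate loading at room temperature.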
# [4] = target: Progesterone receptor (Homo sapiens) (UniProt P06401); assay: qHTS assay to identify small molecule antagonists of the progesterone receptor (PR) signaling pathway (AID 1346795; active means well fitted inhibition curve with a large enough effect in the signal ratio in the repeat runs, not every such curve was filed as active; inconclusive means weak or mixed curves; the % refers to the signal ratio; further: potency means the concentration at half of the fitted maximal effect; on activity change, negative = inhibition: on the % scale 0 is the no-effect control and ±100 the full control effect); details: PR-UAS-bla HEK293T, beta-lactamase FRET ratio, 16 h; activity change, negative = inhibition: at 92.4 µM (top of the series) unless noted
# Method in brief: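 Inhibition of R5020-induced (1 nM final) beta-lactamase reporter signal in PR-UAS-bla HEK293T cells was scored by FRET fluorescence after overnight (16 hr) compound treatment.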
# [5] = qHTS assay to identify small molecule antagonists of the progesterone receptor (PR) signaling pathway - cell viability counter screen (AID 1346798); details: PR-UAS-bla HEK293T viability, CellTiter-Glo luminescence, 16 h; series mostly up to 92.4 µM; further: potency means the concentration at half of the fitted maximal effect; nearly all actives have a fitted effect of over 50% in size
# Method in brief: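 ATP content as viability readout: CellTiter-Glo luminescence, 30 min room temperature, in PR-UAS-bla HEK293T cells after 16 hr compound/R5020 treatment at 37C and 5% CO2.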
# [6] = qHTS assay to identify small molecule antagonists of the TGF-beta/Smad signaling pathway - cell viability counter screen (AID 1346824); details: SBE-bla HEK293T viability, CellTiter-Glo luminescence; series mostly up to 35.3 µM; further: potency means the concentration at half of the fitted maximal effect; nearly all actives have a fitted effect of over 50% in size
# Method in brief: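 SBE-bla HEK 293T cells, incubated overnight, then compound plus 0.25 ng/mL TGF-beta1 (stock added) for 5 hr at 37 C. Viability was read in the same wells by CellTiter-Glo luminescence after 30 min at room temperature.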
# [7] = qHTS assay to identify small molecule agonists of the TGF-beta/Smad signaling pathway - cell viability counter screen (AID 1346829); details: SBE-bla HEK293T viability, CellTiter-Glo luminescence, 5 h; series mostly up to 76.8 µM; further: nearly all actives have a fitted effect of over 45% in size; further: potency means the concentration at half of the fitted maximal effect
# Method in brief: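 CellTiter-Glo luminescence readout; SBE-bla HEK 293T cells, overnight plating, compound 5 hr at 37 C/5% CO2, then bla substrate 2 hr RT, then CellTiter-Glo 30 min RT.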
# [8] = qHTS assay to identify small molecule agonists of the TGF-beta/Smad signaling pathway (AID 1346859; active means well fitted activation curve with a large enough effect in the signal ratio in the repeat runs, not every such curve was filed as active; inconclusive means weak or mixed curves; the % refers to the signal ratio; further: potency means the concentration at half of the fitted maximal effect); details: SBE-bla HEK293T, TGF-beta/Smad beta-lactamase reporter, 5 h; activation: at 76.8 µM (top of the series) unless noted
# Method in brief: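 Stable Smad binding element-beta-lactamase HEK 293T cells; 5 hr compound exposure at 37 C under 5% CO2; 2 hr room-temperature substrate step; fluorescence excited at 405 nm, collected at 460 nm and 530 nm.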
# [9] = qHTS assay to identify small molecule antagonists of the TGF-beta/Smad signaling pathway (AID 1346924; active means well fitted inhibition curve with a large enough effect in the signal ratio in the repeat runs, not every such curve was filed as active; inconclusive means weak or mixed curves; the % refers to the signal ratio; further: potency means the concentration at half of the fitted maximal effect); details: SBE-bla HEK293T, TGF-beta/Smad reporter, beta-lactamase ratio
# Method in brief: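 SBE-bla HEK 293T cells were plated overnight, then received compound in DMSO plus TGF-beta1 (added as a 0.25 ng/mL solution) and were incubated 5 h at 37 C. Beta-lactamase reporter activity was read after 2 h at room temperature with LiveBLAzer B/G FRET substrate (ex 405, em 460/530 nm).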
# [10] = qHTS assay to identify small molecule agonists of the estrogen receptor beta (ER-beta) signaling pathway - cell viability counter screen (AID 1259380); details: ER-beta-bla HEK293T viability, CellTiter-Glo luminescence, 16 h; series mostly up to 92.4 µM; further: potency means the concentration at half of the fitted maximal effect; nearly all actives have a fitted effect of over 30% in size
# Method in brief: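 Viability of ER-beta-UAS-bla HEK293T cells was determined by CellTiter-Glo luminescence following 16 hr treatment with test compounds at 37C.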
# [11] = qHTS assay to identify small molecule antagonists of the estrogen receptor beta (ER-beta) signaling pathway - cell viability counter screen (AID 1259382); details: ER-beta-UAS-bla HEK293T viability, CellTiter-Glo luminescence, 16 h; series mostly up to 92.4 µM; further: potency means the concentration at half of the fitted maximal effect; nearly all actives have a fitted effect of over 55% in size
# Method in brief: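 Tox21 10K library tested in qHTS format on ER-beta-bla HEK293T cells stimulated with 1nM E2; 16 hr treatment at 37C. Same-well CellTiter-Glo luminescence served as the cell viability measure.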
# [12] = qHTS assay to identify small molecule agonists or antagonists of the thyroid stimulating hormone receptor (TSHR) signaling pathway - wild type cell line counter screen (AID 1259384; calls by dose curve; further: potency means the concentration at half of the fitted maximal effect; on cAMP activity change: on the % scale 0 is the no-effect control and ±100 the full control effect); details: HEK293 wild type, cAMP HTRF counter-screen; cAMP activity change: at 92.4 µM (top of the series), stronger effect = higher value unless noted
# Method in brief: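 Wild-type Hek293 cells, 800/well, 18 h at 37C, then compound with Ro20-1724 for 30 min RT. cAMP by HTRF (cAMP-d2/anti-cAMP cryptate), 1 h RT, fluorescence read. 15 concentrations, triplicates.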
# [13] = qHTS assay to identify small molecule agonists of the estrogen receptor alpha (ER-alpha) signaling pathway in the presence of an antagonist - cell viability counter screen (AID 1259386); details: VM7Luc4E2 viability, CellTiter-Fluor fluorescence, 22 h; series mostly up to 92.4 µM;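 further: potency means the concentration at half of the fitted maximal effect; cells exposed to compounds for 22 h at 37 °C before the viability read; nearly all actives have a fitted effect of over 30% in size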
# Method in brief: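 Fluorescent CellTiter-Fluor viability signal from VM7Luc4E2 cells, with the reagent added during the final hour of a 22hr compound exposure at 37C in the presence of 10.0nM ICI-182,780.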
# [14] = qHTS assay to identify small molecule agonists of the progesterone receptor (PR) signaling pathway - cell viability counter screen (AID 1346799; calls by dose curve; further: nearly all actives have a fitted effect of over 45% in size; further: potency means the concentration at half of the fitted maximal effect); details: PR-UAS-bla HEK293T viability, CellTiter-Glo luminescence, 16 h; series mostly up to 92.4 µM
# Method in brief: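 Cytotoxicity in PR-bla HEK293T cells: 16 h compound, 37C; CellTiter-Glo added post-FRET read; luminescence after 30 min RT.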
# [15] = target: Estrogen receptor beta (Homo sapiens) (UniProt Q92731); assay: qHTS assay to identify small molecule antagonists of the estrogen receptor beta (ER-beta) signaling pathway (AID 1259378; active means well fitted inhibition curve with a large enough effect in the signal ratio in the repeat runs, not every such curve was filed as active; inconclusive means weak or mixed curves, or effect the other way; inactive means no such curve, though single readings can be large or run the other way; the % refers to the signal ratio; further: on the % scale 0 is the no-effect control and ±100 the full control effect); details: ER-beta-UAS-bla HEK293T, beta-lactamase FRET ratio, 16 h; activity, negative = inhibition: at 92.4 µM (top of the series) unless noted
# Sequence of UniProt Q92731 (Q92731 whole entry, looked up): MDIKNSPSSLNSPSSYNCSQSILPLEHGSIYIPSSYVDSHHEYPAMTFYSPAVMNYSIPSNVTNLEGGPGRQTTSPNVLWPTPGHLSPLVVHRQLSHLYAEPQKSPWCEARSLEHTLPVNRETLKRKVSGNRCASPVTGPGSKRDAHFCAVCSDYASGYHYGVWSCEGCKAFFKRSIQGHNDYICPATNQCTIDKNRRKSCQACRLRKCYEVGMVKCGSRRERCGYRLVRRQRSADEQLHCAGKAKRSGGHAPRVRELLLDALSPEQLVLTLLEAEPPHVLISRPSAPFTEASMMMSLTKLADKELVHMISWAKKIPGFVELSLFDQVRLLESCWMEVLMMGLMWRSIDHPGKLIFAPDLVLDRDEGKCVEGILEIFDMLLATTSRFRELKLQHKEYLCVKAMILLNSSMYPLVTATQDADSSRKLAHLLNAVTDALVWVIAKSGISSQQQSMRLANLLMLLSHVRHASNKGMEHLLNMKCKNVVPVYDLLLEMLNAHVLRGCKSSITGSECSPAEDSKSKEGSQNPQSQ
# Method in brief: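 ER-beta-UAS-bla HEK293T cells in 2% charcoal-stripped FBS medium treated with compound plus 1nM final 17-beta-estradiol for 16 hr at 37C. Beta-lactamase reporter read by FRET substrate fluorescence after 2 hours at room temperature.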
# [16] = activity, negative = inhibition: at 76.8 µM (top of the series) unless noted
# Tags describe the fitted curve by direction and shape or compound fluorescence and quenching.
smiles,measurement,setting,value
CCCCCCCC[N+](CCCCCCCC)(CCCCCCCC)CCCCCCCC,Potency,[1],active: 17.2 µM
same,Potency,[2],active: 61 µM
same,Potency,[3],inconclusive: 27.3 µM [cytotoxic]
same,Potency,[4],inconclusive: 30.6 µM
same,Potency,[5],active: 30.6 µM
same,Potency,[6],active: 48.9 µM
same,Potency,[7],active: 43.6 µM
same,Potency,[8],inconclusive: 61.5 µM [single point]
same,Potency,[9]; [16],"inconclusive: 3.88 µM [rising, full curve]"
CCN(Cc1cccc(S(=O)(=O)O)c1)c1ccc(C(=C2C=CC(=[N+](CC)Cc3cccc(S(=O)(=O)O)c3)C=C2)c2ccccc2S(=O)(=O)[O-])cc1,Potency,[1],active: 17.3 µM
same,Potency,[10],"inconclusive: 43.4 µM [cytotoxic, single point]"
same,Potency,[11],"inconclusive: 19.4 µM [cytotoxic, partial curve]"
same,Potency,[12],inconclusive: 3.07 µM
same,Potency,[2],"inconclusive: 3.87 µM [falling, full curve]"
same,Potency,[13],active: 17.3 µM
same,Potency,[4],inactive
same,Potency,[5],"inconclusive: 43.4 µM [cytotoxic, single point]"
same,Potency,[14],active: 13.7 µM
same,Potency,[7],"inconclusive: 11 µM [cytotoxic, partial curve]"
same,"activity, negative = inhibition",[9]; [16],inconclusive: -41% [at 35.3 µM]
CN1CCN(N)CC1,Potency,[1],inactive
CNCCCC12CCC(c3ccccc31)c1ccccc12,Potency,[1],"inconclusive: 33.5 µM [cytotoxic, single point]"
same,Potency,[10],active: 15.4 µM and active: 29.8 µM
same,Potency,[2],"inconclusive: 68.6 µM [falling, single point]"
same,Potency,[13],"inconclusive: 68.6 µM [cytotoxic, single point]"
same,Potency,[5],active: 13.7 µM and active: 26.6 µM
same,Potency,[14],active: 19.3 µM
same,Potency,[7],"inconclusive: 61.6 µM [cytotoxic, single point] and inactive"
same,"activity, negative = inhibition",[9]; at 35.3 µM (top of the series),inconclusive: -0.328%
same,"activity, negative = inhibition",[9]; at 76.8 µM (top of the series),inconclusive: -26.7%
CC(=O)[C@H]1CC[C@H]2[C@@H]3CCC4=CC(=O)CC[C@]4(C)[C@H]3CC[C@]12C,Potency,[1],inconclusive: 68.6 µM [cytotoxic]
same,Potency,[10],active: 54.2 µM and active: 61.1 µM
same,Potency,[5],"active: 54.2 µM and inconclusive: 68.6 µM [cytotoxic, single point]"
same,Potency,[14],"active: 60.8 µM and inconclusive: 68.6 µM [cytotoxic, single point]"
same,Potency,[6],inconclusive: 43.4 µM [cytotoxic] and inconclusive: 38.9 µM [cytotoxic]
same,Potency,[7],"inconclusive: 43.4 µM [cytotoxic, partial curve] and inconclusive: 43.6 µM [cytotoxic, partial curve]"
same,Potency,[9]; [16],inconclusive: 31.6 µM and inconclusive: 54.9 µM [single point]
Cc1cc(=O)oc2cc(O)ccc12,Potency,[1],"inconclusive: 54.5 µM [rising, partial curve, poor fit]"
same,cAMP activity change,[12],inconclusive: 7.82%
same,activation,[3],inconclusive: 22.6% and inconclusive: 16.8%
same,Potency,[4],inconclusive: 48.6 µM and inactive
same,Potency,[14],inactive
same,"activity, negative = inhibition",[9]; [16],inconclusive: -1.03% and inconclusive: -0.141%
CC(C)(C)c1ccc(C(=O)O)cc1,"activity, negative = inhibition",[15],inconclusive: -22.5%
same,Potency,[7],inactive
CCN(CC)c1ccc(C(=C2C=CC(=[N+](CC)CC)C=C2)c2cc(S(=O)(=O)O)ccc2S(=O)(=O)[O-])cc1,Potency,[1],active: 26.6 µM
same,Potency,[10],"inconclusive: 37.6 µM [cytotoxic, single point]"
same,Potency,[12],inconclusive: 6.43 µM
same,Potency,[2],inconclusive: 7.5 µM
same,Potency,[13],active: 23.7 µM
same,Potency,[6],"inconclusive: 21.3 µM [cytotoxic, single point]"
same,Potency,[7],"inconclusive: 26.8 µM [cytotoxic, partial curve, poor fit]"
same,"activity, negative = inhibition",[9]; [16],inconclusive: -32.1% [at 35.3 µM]
O=C1CC2(CCCC2)CC(=O)N1CCCCN1CCN(c2ncccn2)CC1,Potency,[1],"inconclusive: 61.1 µM [cytotoxic, partial curve] and inactive"
same,Potency,[10],"inconclusive: 10.6 µM [cytotoxic, partial curve, poor fit]"
same,Potency,[11],"inconclusive: 5.45 µM [cytotoxic, full curve]"
same,Potency,[4],"inconclusive: 6.11 µM [rising, full curve]"
same,Potency,[5],"inconclusive: 3.06 µM [cytotoxic, full curve]"
same,Potency,[14],active: 5.45 µM
